Target: HctB (Lyngbya majuscula, UniProt Q1EDB4)
Details: with and without NaCl (0.5-1 M), HctB and Ac-HctB, pD 7.5 (CD/MCD), pH 7.5, 10 °C (stopped-flow)

## O=C(O)CCC(=O)C(=O)O [α-KG]
  near-IR CD / MCD and VTVH MCD of the Fe(II) site; stopped-flow absorption of the: CD and MCD spectra of α-KG-Fe(II)-HctB and α-KG-Fe(II)-Ac-HctB in the absence and presence of chloride
